Experiment [1] addresses T1, purified full length FLAG-GFP-tagged KDM2A PHD C>A (human) (UniProt Q9Y2K7).
T1 sequence: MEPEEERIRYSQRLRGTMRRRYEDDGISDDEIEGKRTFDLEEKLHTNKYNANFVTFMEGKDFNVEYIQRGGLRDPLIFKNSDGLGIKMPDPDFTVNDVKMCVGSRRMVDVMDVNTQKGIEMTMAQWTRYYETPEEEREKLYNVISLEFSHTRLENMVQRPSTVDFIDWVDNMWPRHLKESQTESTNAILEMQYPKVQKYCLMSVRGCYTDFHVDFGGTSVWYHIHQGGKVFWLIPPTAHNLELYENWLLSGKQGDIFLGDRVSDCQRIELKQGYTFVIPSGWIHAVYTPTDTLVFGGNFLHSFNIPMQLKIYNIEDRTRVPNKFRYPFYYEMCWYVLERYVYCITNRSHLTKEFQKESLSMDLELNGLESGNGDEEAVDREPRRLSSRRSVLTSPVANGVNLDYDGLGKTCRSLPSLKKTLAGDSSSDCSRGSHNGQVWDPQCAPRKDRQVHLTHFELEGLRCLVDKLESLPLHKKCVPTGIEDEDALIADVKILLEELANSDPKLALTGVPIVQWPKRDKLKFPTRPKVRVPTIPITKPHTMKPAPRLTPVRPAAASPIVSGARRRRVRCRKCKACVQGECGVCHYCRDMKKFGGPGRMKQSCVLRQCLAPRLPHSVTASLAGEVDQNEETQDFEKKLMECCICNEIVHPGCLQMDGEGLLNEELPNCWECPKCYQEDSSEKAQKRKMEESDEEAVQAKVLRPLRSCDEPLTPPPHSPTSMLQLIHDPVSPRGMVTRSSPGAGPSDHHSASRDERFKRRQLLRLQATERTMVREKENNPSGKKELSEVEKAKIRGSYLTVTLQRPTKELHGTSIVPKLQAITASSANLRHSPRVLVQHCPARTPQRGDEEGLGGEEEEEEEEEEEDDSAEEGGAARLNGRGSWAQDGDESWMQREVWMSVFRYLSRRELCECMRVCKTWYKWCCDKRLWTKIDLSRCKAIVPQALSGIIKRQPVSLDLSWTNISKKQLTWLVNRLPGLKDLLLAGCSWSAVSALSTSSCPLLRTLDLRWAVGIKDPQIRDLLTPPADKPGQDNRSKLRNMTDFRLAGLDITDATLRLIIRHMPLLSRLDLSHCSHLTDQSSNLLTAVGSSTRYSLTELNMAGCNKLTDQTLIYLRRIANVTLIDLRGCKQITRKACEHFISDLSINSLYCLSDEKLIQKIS
Description: pull-down; nucleosomes (2.5 μg octamer, unmethylated biotinylated 601-DNA) immobilised on streptavidin beads, incubated with 2 μg purified full length FLAG-GFP-KDM2A (WT or mutant) and 2 μg HP1α in 1 ml binding buffer (20 mM HEPES pH7.9, 150 mM NaCl, 0.1% NP40); immunoblot; both purified. (In general: In western blotting, separated proteins are transferred to a membrane and probed.)

By UniProt entry, the sequences of proteins in these tests, tags left out.
UniProt P45973: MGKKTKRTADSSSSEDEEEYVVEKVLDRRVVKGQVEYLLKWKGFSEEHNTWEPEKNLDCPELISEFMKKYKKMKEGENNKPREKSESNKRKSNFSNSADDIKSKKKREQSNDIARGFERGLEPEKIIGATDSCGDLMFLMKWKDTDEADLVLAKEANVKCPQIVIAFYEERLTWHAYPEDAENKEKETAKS

Experiment [2] deals with T2, purified full length FLAG-GFP-tagged KDM2A V801A/L803A (human) (UniProt Q9Y2K7).
T2 sequence: T1 sequence with A620C, A623C, V801A, L803A
Described as above.

Where a chain is given by its changes, count along the chain named. Results are given in words; binding and its absence hold for the method and conditions named. Some binding calls cover weakened binding; strength is not graded here. Sequences can lack the tags named with a protein.

For “recombinant purified HP1α (WT) (from UniProt P45973 1-191)”, the binding result is on record as “binds” in experiment [1] and “no binding” in experiment [2].

(Values after paper PMC5388433.)
